Some of the results follow. Rule as the data show it: active = 3.2 or more and inactive = the rest. Most of these values are background signal.
Key:
Test in all cases: enrichment score (SH2-bound / input frequency) (ratio); bacterial display of known human phosphotyrosine sites (pTyr-Var adds point mutants) read by sequencing; higher = stronger binding; tyrosines were phosphorylated by kinases first
Conditions in all cases: peptide library: pTyr-Var
SHP2 C-SH2 domain E139D = biological target: SHP2 C-SH2 domain E139D
[1] = biological target: SHP2 C-SH2 domain wild-type
SHP2 N-SH2 domain L43F = biological target: SHP2 N-SH2 domain L43F
SHP2 N-SH2 domain T42A = biological target: SHP2 N-SH2 domain T42A
SHP2 N-SH2 domain T52S = biological target: SHP2 N-SH2 domain T52S
[2] = biological target: SHP2 N-SH2 domain wild-type
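Also: displayed peptides selected on beads carrying the immobilized SH2 domain, with library peptides lacking any tyrosine serving as negative controls.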

Binder	enrichment score (SHP2 C-SH2 domain E139D)	enrichment score [1]	enrichment score (SHP2 N-SH2 domain L43F)	enrichment score (SHP2 N-SH2 domain T42A)	enrichment score (SHP2 N-SH2 domain T52S)	enrichment score [2]
QRPGLYDRPGA [HNRNPH2_Y210_P209L]	inactive: 0.635	inactive: 0.783	inactive: 0.683	inactive: 0.701	inactive: 0.607	inactive: 0.597
VEQIHYIGQNE [HMOX2_Y140_R137Q]	inactive: 0.816	inactive: 0.658	inactive: 0.845	inactive: 0.87	inactive: 0.812	inactive: 0.907
SMGHRYIEVFR [HNRNPF_Y82_K87R]	inactive: 1.08	inactive: 1.57	active: 3.28	active: 4.5	active: 4.69	inactive: 1.82
YSMGCYEIYLG [HMGCL_Y198_S201Y]	inactive: 1.29	inactive: 1.91	inactive: 1.63	inactive: 1.26	inactive: 1.17	inactive: 1.99
YGSGNYNDFGN [HNRNPA2B1_Y300]	inactive: 0.958	inactive: 0.722	inactive: 0.686	inactive: 0.554	inactive: 0.655	inactive: 0.879
NVFGNYNQQPS [HNRNPA2B1_Y306_D302V]	inactive: 0.801	inactive: 0.801	inactive: 0.711	inactive: 0.782	inactive: 0.912	inactive: 0.945
MSSLFYANALF [HOXB7_Y6_T9A_YF]	inactive: 1.02	inactive: 0.961	inactive: 1.21	inactive: 1.29	inactive: 1.37	inactive: 0.957
GKGGSYSKAES [HLA-E_Y341_W346S]	inactive: 0.439	inactive: 0.453	inactive: 0.612	inactive: 0.378	inactive: 0.445	inactive: 0.53
NVFGNYNNQSS [HNRNPA1_Y318_D314V]	inactive: 1.26	inactive: 0.963	inactive: 0.81	inactive: 0.829	inactive: 0.805	inactive: 1.2
GGGGSYNDFGN [HNRNPA1_Y312]	inactive: 0.574	inactive: 0.679	inactive: 0.54	inactive: 0.574	inactive: 0.488	inactive: 0.984
VRRVGYVSGWG [HP_Y280_G276R]	inactive: 0.583	inactive: 0.595	inactive: 0.489	inactive: 0.447	inactive: 0.521	inactive: 0.568
GKMSSYAFFVQ [HMGB1_Y16]	inactive: 1.05	inactive: 1.62	inactive: 1.09	inactive: 1.44	inactive: 1.05	inactive: 1.04
FCRHNYGVGES [HLA-DRB1_Y112_V115G_YF]	inactive: 1.8	inactive: 1.84	inactive: 1.61	inactive: 1.66	inactive: 1.56	inactive: 1.71
MSSLYYANTLF [HOXB7_Y6]	inactive: 1.63	inactive: 1.51	active: 4.52	active: 4.59	active: 5.11	inactive: 1.94
LDYNEYFRDLN [HPRT1_Y198]	inactive: 0.951	inactive: 0.603	inactive: 0.78	inactive: 0.717	inactive: 0.683	inactive: 0.693
FSMGCYEIFLG [HMGCL_Y198_S201Y_YF]	inactive: 1.77	inactive: 1.71	inactive: 1.6	inactive: 1.33	inactive: 1.49	inactive: 2.01
DNQYAYLKAII [HNF4A_Y288_E285Q]	inactive: 0.776	inactive: 0.745	inactive: 0.837	inactive: 0.968	inactive: 0.751	inactive: 0.543
IDDNQYAFLKA [HNF4A_Y286_E285Q_YF]	inactive: 0.621	inactive: 0.688	inactive: 0.714	inactive: 0.57	inactive: 0.753	inactive: 0.662
FSMGCYEISLE [HMGCL_Y198_G203E_YF]	inactive: 0.768	inactive: 1.17	inactive: 0.848	inactive: 0.826	inactive: 0.652	inactive: 1.22

Binder	enrichment score (SHP2 C-SH2 domain E139D)	enrichment score [1]	enrichment score (SHP2 N-SH2 domain L43F)	enrichment score (SHP2 N-SH2 domain T42A)	enrichment score (SHP2 N-SH2 domain T52S)	enrichment score [2]
QKFMAYPSQGG [HLCS_Y236_L237P]	inactive: 1.87	inactive: 1.1	inactive: 1.22	inactive: 1.46	inactive: 1.31	inactive: 1.31
FGSGNYNVFGN [HNRNPA2B1_Y300_D302V_YF]	inactive: 1.05	inactive: 0.892	inactive: 0.658	inactive: 0.806	inactive: 0.793	inactive: 0.644
FCRHNYGAVES [HLA-DRB1_Y112_V114A_YF]	inactive: 2.18	inactive: 2.18	inactive: 2.15	inactive: 1.93	inactive: 2.19	inactive: 2.33
YSMGCYEISLG [HMGCL_Y198]	inactive: 0.994	inactive: 1.47	inactive: 0.989	inactive: 0.983	inactive: 1.15	inactive: 1.21
YCRHNYGVVES [HLA-DRB1_Y112]	inactive: 2.06	inactive: 1.9	inactive: 2.1	inactive: 1.59	inactive: 1.81	inactive: 2.19
MSSLFYANTLF [HOXB7_Y6_YF]	inactive: 0.802	inactive: 0.711	inactive: 0.868	inactive: 0.916	inactive: 0.786	inactive: 0.886
RSSGSYGGGGQ [HNRNPA1_Y341_P340S]	inactive: 0.605	inactive: 0.581	inactive: 0.569	inactive: 0.44	inactive: 0.431	inactive: 0.712
AAVDNYCRHNF [HLA-DRB1_Y107_T106N_YF]	inactive: 0.87	inactive: 1.45	inactive: 1.14	inactive: 1.35	inactive: 1.01	inactive: 1.03
FSMGCYEISLG [HMGCL_Y198_YF]	inactive: 0.817	inactive: 0.9	inactive: 0.795	inactive: 0.763	inactive: 0.638	inactive: 0.94
YGSGNYNVFGN [HNRNPA2B1_Y300_D302V]	inactive: 0.858	inactive: 0.554	inactive: 0.705	inactive: 0.773	inactive: 0.641	inactive: 0.794
YSMGCYEFSLG [HMGCL_Y198_I200F]	inactive: 1.04	inactive: 0.825	inactive: 0.779	inactive: 0.753	inactive: 0.702	inactive: 1.24
KLKEKYQKDIA [HMGB1_Y155_E156Q]	inactive: 2.39	inactive: 2.07	inactive: 2.51	inactive: 2.15	inactive: 2.56	inactive: 2.27
ALVDTYCRHNF [HLA-DRB1_Y107_A103L_YF]	inactive: 1.41	inactive: 1.4	inactive: 1.31	inactive: 1.2	inactive: 1.21	inactive: 1.56
LPSKDYAEVGR [HP_Y272]	inactive: 0.587	inactive: 0.606	inactive: 0.533	inactive: 0.7	inactive: 0.483	inactive: 0.862
YCRHNYGVGES [HLA-DRB1_Y112_V115G]	inactive: 1.69	inactive: 1.55	inactive: 1.76	inactive: 1.48	inactive: 1.55	inactive: 1.53
NDFGNYSNQSS [HNRNPA1_Y318_N319S]	inactive: 0.472	inactive: 0.358	inactive: 0.4	inactive: 0.492	inactive: 0.444	inactive: 0.4
NDFGNYNQQPS [HNRNPA2B1_Y306]	inactive: 0.752	inactive: 0.603	inactive: 0.629	inactive: 0.551	inactive: 0.636	inactive: 0.633
YNNYGYGNDGF [HNRNPH3_Y161]	inactive: 0.879	inactive: 0.725	inactive: 0.709	inactive: 0.861	inactive: 0.589	inactive: 0.819
